Paper PMC4336329 (PLoS ONE, 2015)
Among all 310,000 compounds or so, about 14,000 (4.5%) showed an effect of 50% or more. The effect is printed as a negative number. Some of the results follow.

target: human ether-à-go-go-related gene (hERG) potassium channel (human, UniProt Q12809); test: primary screen, population patch clamp on CHO cells stably expressing hERG
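Note: peak tail current of the secondary pulse compared with the same well before compound.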

Sequence of human ether-à-go-go-related gene (hERG) potassium channel (Q12809 whole entry, looked up): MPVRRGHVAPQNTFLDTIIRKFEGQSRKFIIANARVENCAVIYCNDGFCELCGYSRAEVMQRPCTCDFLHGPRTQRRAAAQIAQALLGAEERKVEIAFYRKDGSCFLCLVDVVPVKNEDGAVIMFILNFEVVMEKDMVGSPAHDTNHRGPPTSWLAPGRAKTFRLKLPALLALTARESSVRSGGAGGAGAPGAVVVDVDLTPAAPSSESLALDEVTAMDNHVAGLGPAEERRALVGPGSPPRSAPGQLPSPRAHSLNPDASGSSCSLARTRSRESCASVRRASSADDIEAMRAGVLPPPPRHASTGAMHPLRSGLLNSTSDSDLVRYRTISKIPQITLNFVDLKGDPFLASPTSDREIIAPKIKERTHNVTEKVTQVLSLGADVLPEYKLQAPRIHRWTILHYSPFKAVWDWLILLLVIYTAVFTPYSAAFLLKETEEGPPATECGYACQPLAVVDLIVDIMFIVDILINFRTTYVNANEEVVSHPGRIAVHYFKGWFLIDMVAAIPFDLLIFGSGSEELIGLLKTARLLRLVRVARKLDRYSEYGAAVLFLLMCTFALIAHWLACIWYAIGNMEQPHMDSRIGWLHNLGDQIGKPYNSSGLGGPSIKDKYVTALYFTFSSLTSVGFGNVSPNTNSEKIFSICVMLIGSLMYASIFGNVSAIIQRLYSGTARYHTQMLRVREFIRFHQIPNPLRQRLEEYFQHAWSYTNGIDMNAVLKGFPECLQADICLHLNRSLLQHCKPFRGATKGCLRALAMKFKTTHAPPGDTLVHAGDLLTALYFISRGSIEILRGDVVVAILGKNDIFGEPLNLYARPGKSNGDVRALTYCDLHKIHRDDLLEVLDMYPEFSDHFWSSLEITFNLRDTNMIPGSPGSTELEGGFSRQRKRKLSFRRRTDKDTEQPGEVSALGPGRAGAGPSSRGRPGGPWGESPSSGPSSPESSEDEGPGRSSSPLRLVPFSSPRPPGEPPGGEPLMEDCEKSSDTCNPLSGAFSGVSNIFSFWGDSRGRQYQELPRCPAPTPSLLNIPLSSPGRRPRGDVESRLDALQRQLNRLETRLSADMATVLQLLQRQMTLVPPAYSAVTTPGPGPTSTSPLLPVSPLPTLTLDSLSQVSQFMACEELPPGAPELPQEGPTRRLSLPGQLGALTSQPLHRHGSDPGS

Row | Structure (SMILES) | hERG current change (%, negative = inhibition) at 10uM
1 | CC(C)=N/N=C(/c1ccc([N+](=O)[O-])cc1)C12CN3CN(CN(C3)C1)C2 | -8.65%
2 | CCN1CCN(C(c2ccc(F)cc2)c2nnnn2Cc2cccs2)CC1 (stereo not shown) | -59.4%
3 | Nc1ccc(-c2ccc(N)c(C(=O)O)c2)cc1C(=O)O | 7.74%
4 | N/C(=N\c1nc2c(c(=O)[nH]1)CCC2)Nc1ccccc1 | 10%
5 | COc1cccc(NS(=O)(=O)c2c(C)n(C)c(=O)n(C)c2=O)c1 | -19.9%
6 | Cl.Clc1ccc(OCCCCN2CCc3ccccc3C2)cc1 | -68.1%
7 | O=C(NCCCn1ccnc1)C(Cc1ccccc1)N1C(=O)c2ccccc2C1=O (stereo not shown) | -34.5%
8 | COc1ccc(N2CCN(C(=O)C3CCCN(c4ncnc5c4nc4n5CCCCC4)C3)CC2)cc1 (stereo not shown) | -68.7%
9 | COc1ccccc1C1CC(c2ccc(Cl)cc2)Nc2nc(N)nn21 (stereo not shown) | -45.8%
10 | CCC(C(=O)Nc1cccc(C(F)(F)F)c1)c1ccccc1 (stereo not shown) | 3.89%
11 | CC(/C=C/c1ccccc1)=N\Nc1nc(-c2ccccc2)cs1 | -4.71%
12 | O=[N+]([O-])c1ccc(S(=O)(=O)CC2CSc3nc4ccccc4n32)cc1 (stereo not shown) | -12.7%
13 | Cc1ccc(S(=O)(=O)CC#CCOC(=O)c2ccc([N+](=O)[O-])cc2)cc1 | -7.06%
14 | N#CC1CCCc2c1[nH]c1ccc([N+](=O)[O-])cc21 (stereo not shown) | 12.5%
15 | O=[N+]([O-])c1ccc(-c2cnc(SCc3ccccc3Cl)[nH]2)cc1 | 0.956%
16 | Cc1cccnc1N1C(=O)c2ccc(C(=O)O)cc2C1=O | 12.5%
17 | O=C1NCCc2c1[nH]c1ccccc21 | -77%
18 | Cc1cc(C)nc(NC2=NCCN2C(=S)Nc2c(C)cccc2C)n1 | -27.7%
19 | CN(CC(=O)Nc1ccccc1Cl)C(=O)c1cc(C2CC2)nn1-c1ccccc1 | -18.1%
20 | Cc1ccc(C2OC3=C(C(=O)CC(C)(C)C3)C(N)=C2C#N)o1 (stereo not shown) | 7.31%

Row | Structure (SMILES) | hERG current change (%, negative = inhibition) at 10uM
21 | S=C1NC[C@H](Cc2ccccc2)N1CCCCC1CCCCC1 | 4.71%
22 | Cc1nc(CC(=O)Nc2nccs2)cs1 | -4.9%
23 | COc1ccc(-c2cn(CCO)c(-c3ccncc3)n2)cc1 | 7%
24 | COc1ccc(-c2cc(C)nc(SCC(=O)c3cccc([N+](=O)[O-])c3)n2)cc1 | 0.439%
25 | CN(C(=O)COc1ccccc1C(=O)NCCOc1ccccc1)c1ccccc1 | -9.86%
26 | Cc1c(C(=O)Nc2ccc(Br)cc2)cnn1C | -21.8%
27 | CC(C)(C)c1nnc(NC(=O)Nc2ccc(Cl)cc2)s1 | 13.6%
28 | Oc1cc(Cl)cc(Cl)c1Cl | 8.5%
29 | CCCN(C(=O)CSc1nnnn1-c1ccccc1OC)C1CCS(=O)(=O)C1 (stereo not shown) | -20.7%
30 | COc1ccc(CNC(=O)Cn2nc(C)n3cccc3c2=O)cc1 | -1%
31 | Cc1nc2ccccc2c2c1C(=O)N(C(C)C)C2=O | 0.173%
32 | Cc1ccc(C)n1-n1c(C)nc2sc(-c3ccccc3)cc2c1=O | 13.6%
33 | CC(=O)c1cnc2nc(C)nn2c1C | 6.72%
34 | O=C(Nc1ccc(F)cc1)Oc1ccccc1N1CCOCC1 | 18.2%
35 | CCOC(=O)Cn1nnnc1CN(Cc1cccs1)Cc1cc2cc(C)ccc2[nH]c1=O | -17%
36 | CCOC(=O)N1CCC(NC(=O)c2csc3c2CCCC3)CC1 | -1.64%
37 | COc1ccc2[nH]c3c(=O)n(N)c(C)nc3c2c1 | 0.621%
38 | NS(=O)(=O)c1ccc(CCNC(=O)c2cccnc2)cc1 | 8.2%
39 | Cc1cc2c(NS(=O)(=O)c3ccc(F)cc3)cccc2nn1 | 10.9%
40 | CCCCOP(=O)(OCCCC)C1(NS(=O)(=O)c2ccccc2)C=CC(=O)c2ccccc21 (stereo not shown) | -9.69%

Row | Structure (SMILES) | hERG current change (%, negative = inhibition) at 10uM
41 | Fc1ccccc1NC(=S)N1CCN(Cc2ccc3c(c2)OCO3)CC1 | -1.3%
42 | CCOC(=O)c1c(C)[nH]c(C(=O)C(C)N2CCCC2)c1C (stereo not shown) | 8.52%
43 | O=C(Nc1ccc(Oc2ccccc2)nc1)C1CCCCN1Cc1ccc(O)cc1 (stereo not shown) | -25.2%
44 | O=C1SC(SCc2ccccc2)=N/C1=C\c1ccc(C(=O)O)cc1 | 27.1%
45 | O=C(Nc1nnc(Cc2ccc(Cl)cc2)s1)C1CCCO1 (stereo not shown) | -2.13%
46 | CCCCC(=O)N/N=C/c1c(O)n(-c2cccc3ccccc23)c(=O)[nH]c1=O | 9.6%
47 | O=C1CC(c2ccc(F)cc2)Sc2nc(C34CC5CC(CC(C5)C3)C4)nn21 (stereo not shown) | 15.1%
48 | CCCOc1ccc(N2CC(C(=O)Nc3ccccc3F)CC2=O)cc1 (stereo not shown) | -3.15%
49 | COC(=O)c1ccccc1NC(=O)NCc1c(C)nn(C)c1C | 21.9%
50 | O=[N+]([O-])c1ccc(O)c(/C=N/NC(=S)Nc2ccc(Cl)cc2Cl)c1 | 48.5%
51 | CCN1CCn2c3c(c4cc(Br)ccc42)CCCC31.Cl (stereo not shown) | -11%
52 | N/C(=N\OC(=O)c1ccc(=O)n(Cc2ccc(Cl)cc2)c1)c1ccccn1 | -33.2%
53 | Nc1cc(=O)[nH]c(=S)n1-c1cccc(C(F)(F)F)c1 | 20.1%
54 | CCC(C(=O)OCC(=O)Nc1ccc(C(=O)Nc2ccc(OC)cc2)cc1)c1ccccc1 (stereo not shown) | -7.87%
55 | Cc1nnc(SCc2ccc(Cl)cc2)nc1/C=C/N(C)C | -72.6%
56 | COC(=O)c1ccccc1NC(=O)C1CC(=O)N(c2ccccc2)C1 (stereo not shown) | -20.3%
57 | O=C(Nc1cc(C(F)(F)F)ccc1N1CCOCC1)C1=NN(c2ccccc2)C(=O)CC1 | -35.9%
58 | O=C(CN1CCN(C(=O)c2ccccc2)CC1)Nc1ccc(Cl)cc1F | -71%
